Source: PubChem BioAssay AID1508623 (National Center for Advancing Translational Sciences (NCATS), 2021)
Out of some 48,000 compounds screened, about 450 (0.94%) were called active. Inconclusive results (about 19%) are left out. Calls come from the whole dose curve; as a rule, active = well fitted inhibition curve with a large enough effect; inconclusive = small, poorly fitted or top-dose-only effect; inactive = no such curve, though single readings can be large or run the other way. The list shows a part of the results.

assay: Primary qHTS for Identification of Small Molecule Inhibitors of Huntingtin Promoter Activity; conditions: HEK293 HTT promoter firefly luciferase reporter (activity 0% = vehicle and -100% = no light), 24 h; series mostly up to 57.5 µM; activity change, negative = inhibition: at the top concentration; note: nearly all actives have a fitted effect of over 50% in size
How it was run: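 Luminescence was read after Dual-Glo reagent and a 10 min room-temperature incubation. Values were normalized to vehicle (0% activity) and zero RLU (-100% activity). Reporter HEK293 cells had been exposed to compounds (up to 57.5 uM final) for 24 h.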

Compound | activity change, negative = inhibition
CCCCn1nc(NC(=O)c2cccc(Cl)c2)c2cc3ccc(C)cc3nc21 | inactive: -19.1%
CC(=O)Nc1ccc(NS(=O)(=O)c2cc3c4c(c2)CC(=O)N4CCC3)cc1 | inactive: -1.47%
COc1cc(C(=O)NCCS(=O)(=O)N2CCN(c3ccccc3)CC2)cc(OC)c1OC | inactive: -16.7%
COc1ccc(-c2cc3nc(C)c(CCC(=O)N4CCN(c5cc(C)ccc5C)CC4)c(C)n3n2)c(OC)c1 | inactive: -19.6%
CCOc1ccc(NC(=O)CN2CCN(CC(=O)Nc3ccc(OC)cc3)CC2)cc1 | inactive: -2.72%
COc1ccccc1/C=C/c1nc(C#N)c(N2CCN(c3ccccc3)CC2)o1 | inactive: -8.64%
CN(C(=O)CSc1nc2ccc(NC(=O)COc3ccccc3Cl)cc2s1)c1ccccc1 | inactive: -0.151%
Cc1ccc(Nc2c(-c3ccccc3O)nc3cc(C)ccn23)cc1 | inactive: -28.4%
COc1ccc(-c2cc(C(F)(F)F)nc(NCCc3ccccc3)n2)cc1 | inactive: 7.76%
Cc1c(-c2ccc(Cl)cc2)c(=O)oc2c(CN3CCOCC3)c(O)ccc12 | inactive: -28.7%
O=C(NCCc1ccccc1)c1cc2sccc2n1Cc1ccc(F)cc1 | inactive: -8.51%
COC(=O)c1cccc(CN2C(=O)SC(Nc3ccc(Br)cc3)C2=O)c1 (stereo unspecified) | inactive: -22.1%
Cc1ccc(NC(=O)CSc2nc3ccc(NC(=O)c4ccco4)cc3s2)c(C)c1 | inactive: -12.4%
CNC(=O)c1c(NC(=O)c2ccc(S(=O)(=O)N3CCCC(C)C3)cc2)sc2c1CCC2 (stereo unspecified) | inactive: -7.05%
CCCCOc1ccc(C(=O)Nc2onc3c2CCCC3)cc1 | inactive: 37.8%
Cc1cc(C)cc(NC(=O)Nc2cccs2)c1 | inactive: 24.7%
CCOC(=O)CN1C(C(=O)c2ccccc2)=C(OC(=O)c2ccccc2)c2ccccc2S1(=O)=O | inactive: 12.9%
Cc1ccc(C)c(NC(=O)Cn2cnc3nc4c(cc3c2=O)CCCC4)c1 | inactive: -4.59%
CCOC(=O)c1cccc(NC(=O)c2ccc3snnc3c2)c1 | inactive: -3.52%
CCc1ccc(-n2c(N3CCN(c4cccc(C)c4C)CC3)nc3ccccc3c2=O)cc1 | inactive: -28.3%
Cc1ccc(Nc2nc(N)nc(N)c2S(=O)(=O)c2ccccc2)cc1 | inactive: -27%

Compound | activity change, negative = inhibition
COC(=O)c1sccc1S(=O)(=O)N(CC(=O)NCc1ccccc1)c1ccc(C)cc1 | inactive: -19.9%
CC1CC(=O)NN=C1c1ccc(NCC(C)(C)NCC(O)COc2cc(Cl)ccc2C#N)cc1 (stereo unspecified) | inactive: 4.76%
COc1ccccc1C(=O)Nc1nc(-c2ccc(Br)cc2)ns1 | inactive: -4.03%
Cc1nc2ccn(Cc3cccnc3)c(=O)c2cc1C(=O)N1CCN(c2ccccc2)CC1 | inactive: 9.14%
Oc1ccccc1-c1nnco1 | inactive: 12.9%
CCOc1ccc(-c2cc(C(=O)NCCc3ccccc3)c3c(-c4ccc(C)cc4)[nH]nc3n2)cc1 | inactive: 18.4%
CCN(CC)c1cc(C)c2cc(NC(=O)/C=C/c3ccccc3OC(C)C)ccc2n1 | inactive: -17.6%
Cc1cc(C)c2c(=O)c3c(oc2c1)C(=O)N(Cc1ccco1)C3c1ccc(F)cc1 (stereo unspecified) | inactive: -22.7%
CC(=O)N1CCc2c(sc3c2c(=O)n(-c2cccc(Cl)c2)c(=O)n3Cc2ccc(F)cc2Cl)C1 | inactive: 0%
Cc1nn(C)c2c1c(C(F)(F)F)cc(=O)n2CC(=O)N1CCN(c2ccccc2F)CC1 | inactive: -2.1%
O=C(NCc1ccc2c(c1)CCN2C(=O)c1ccc(Cl)cc1)c1ccco1 | inactive: -11.5%
CCOC(=O)c1c(NC(=O)/C=C/c2ccc(OCC)cc2)sc2c1CCCC2 | inactive: -3.3%
O=C(Cn1c(=O)n(-c2ccccc2)c(=O)c2c3c(sc21)CCCC3)Nc1ccccc1 | inactive: -14.4%
O=C(O)CSc1nnc(-c2ccc(O)cc2)o1 | inactive: -14.8%
CCOC(=O)c1noc2nc(C)n(CC(=O)Nc3ccc(OC)c(Cl)c3)c(=O)c12 | inactive: 1.63%
Cc1cc(N2CCC(C(=O)Nc3ccc(Cl)cc3)CC2)n2nc(C)c(-c3ccc(Cl)cc3)c2n1 | inactive: -10.3%
CCOC(=O)CSc1nnc2n(-c3ccccc3)c(=O)c3c4c(sc3n12)COC(C(C)C)C4 (stereo unspecified) | inactive: -0.755%
Cc1cc2c(cc3c(=O)n(CC(=O)NCc4ccccc4Br)ncn32)s1 | inactive: 1.76%
Cc1ccc(-n2nc(C)c3c(C(=O)O)cc(C)nc32)cc1 | inactive: -15.4%
CC(CNC(=O)c1ccc2c(c1)nc1n2CCOC1)c1ccccc1 (stereo unspecified) | inactive: 64.9%
CC(C)NC(=O)CSc1nc2ccccc2c(=O)n1Cc1ccc(C(=O)NC(C)C)cc1 | inactive: 1.59%

Compound | activity change, negative = inhibition
O=C(CCS(=O)(=O)c1cccc2nonc12)Nc1cccc(F)c1 | inactive: -0.381%
O=C(CSc1nc(=O)[nH]c2c1CCC2)NCc1ccc(Cl)cc1 | inactive: -9.24%
COc1ccc(CN(Cc2ccco2)c2cnc(S(C)(=O)=O)nc2C(=O)Nc2ccc(C)c(C)c2)cc1 | inactive: -18.1%
COC(=O)c1ccc(C(=O)Nc2ccc(-c3nc4cc(NC(=O)c5ccc(C(=O)OC)cc5)ccc4o3)cc2)cc1 | inactive: -0.0438%
CCSc1ncc(Cl)c(C(=O)Nc2ccc(S(=O)(=O)Nc3nccc(C)n3)cc2)n1 | inactive: -15.2%
Cc1ccc(Cl)cc1NC(=O)Cn1cc2c(n1)CCCCC2 | inactive: -6.16%
Nc1ccc(S(=O)(=O)Nc2nccs2)cc1 | inactive: 2.16%
O=C(CCC1N=C2c3ccccc3N=C(SCc3ccccc3Cl)N2C1=O)N1CCN(c2ccccc2)CC1 (stereo unspecified) | inactive: -28%
COC(=O)c1ccc(NC(=O)c2cccc3c2C(=O)N(C2CCCCC2)C3)cc1 | inactive: 0.925%
COC(=O)CC1Oc2ccc(C)cc2-n2cc(-c3ccc(F)cc3)nc21 (stereo unspecified) | inactive: -20.7%
COc1ccc(N2CCN(C(=O)c3cc(NS(=O)(=O)c4ccc(F)cc4)ccn3)CC2)cc1 | inactive: -11.7%
Cc1ccc(C)c(N2CCN(C(=O)CCn3c(=O)[nH]c4ccccc4c3=O)CC2)c1 | inactive: -27.8%
Cc1ccc(C)c(NC(=O)CSc2ncc3c(n2)-c2cc(Cl)ccc2N(Cc2ccccc2F)S3(=O)=O)c1 | inactive: -12%
CC1(C)CC(=O)c2cc(-c3nc(-c4ccc(Cl)cc4)cs3)c(=O)n(-c3ccc(F)cc3)c2C1 | inactive: -13.2%
CC(CNC1CCCCC1)OC(=O)c1ccccc1 (stereo unspecified) | inactive: -6.05%
COc1ccc(-c2oc3ncn4nc(-c5ccccc5Cl)nc4c3c2-c2ccc(OC)cc2)cc1 | inactive: 59.3% [at 11.5 µM]
Cc1cc(Cl)ccc1NC(=O)CCn1nc(C)c2c(C)n(-c3ccccc3)nc2c1=O | inactive: -15.4%
Cc1ccc(CNC(=O)CSc2nc3n[nH]c(C)c3c(=N)n2-c2cccc(C)c2)cc1 | inactive: -26.8%
CCOc1ccc(NC(=O)Cn2cc(S(=O)(=O)N3CCN(c4ccccc4F)CC3)c3ccccc3c2=O)cc1 | inactive: -2.33%
